{"source": "PubChem BioAssay AID1240", "about": "(Sanford-Burnham Center for Chemical Genomics, 2008)", "note": "The campaign covered roughly 50,000 compounds. About 800 (1.6%) showed an effect of 50% or more. The list shows a part of the results."}
{"target": "Bcl-2-like protein 10 (Homo sapiens) (UniProt Q9HD36)", "sequence (Q9HD36 whole entry, looked up)": "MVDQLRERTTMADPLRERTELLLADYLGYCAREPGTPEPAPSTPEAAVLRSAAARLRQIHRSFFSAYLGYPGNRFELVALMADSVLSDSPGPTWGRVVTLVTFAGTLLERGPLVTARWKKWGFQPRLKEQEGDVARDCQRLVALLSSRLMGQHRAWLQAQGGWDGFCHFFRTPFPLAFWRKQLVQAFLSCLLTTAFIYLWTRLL", "experiment": "TR3 peptide-Bcl-B binding displacers, biochemical primary FP assay, phenotype converters (AID 1240);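 further: 0% = Bcl-B with tracer peptide and DMSO and 100% = tracer peptide lacking Bcl-B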", "settings": "GST-Bcl-B / FITC-TR3 peptide fluorescence polarization; stronger effect = higher value; compound at 3.75 mg/L", "units": {"displacement": "%"}}
{"smiles": "COC(=O)CN(Cc1ccccc1)S(=O)(=O)c1ccc(OC)c(OC)c1", "displacement": -8.1}
{"smiles": "CCOC(=O)c1c(C)oc2ccc(OC(=O)c3ccc(OC)c(OC)c3)cc12", "displacement": 10.3}
{"smiles": "O=C1C=C(NNC(=O)Cc2ccccc2)CCC1", "displacement": 1.2}
{"smiles": "COc1ccc(C(=O)N2CCN(C3C4CC5CC(C4)CC3C5)CC2)cc1OC", "note": "(centres undefined)", "displacement": -6.5}
{"smiles": "CCCCOc1ccccc1C1Nc2ccccc2NC2=C1C(=O)CC(c1ccccc1)C2", "note": "(centres undefined)", "displacement": 1.1}
{"smiles": "O=C1C(Cl)=C(Nc2ccc(F)cc2)C(=O)N1c1ccc(Br)cc1", "displacement": -2.5}
{"smiles": "Cc1ccc(C(=O)c2sc3nc(C)cc(C)c3c2N)c(C)c1", "displacement": 2.3}
{"smiles": "NC(=O)c1cc(NC(=O)COc2ccc(F)cc2)ccc1Cl", "displacement": 1.1}
{"smiles": "CCN(CC)C(=O)CN(c1ccc(Cl)cc1)S(C)(=O)=O", "displacement": 1.2}
{"smiles": "O=C1C2C3C=CC(C4CC34)C2C(=O)N1N=Cc1ccccc1Cl", "note": "(centres undefined)", "displacement": 9.2}
{"smiles": "CN(C)S(=O)(=O)c1ccc(C(=O)Nc2nc3ccc(Br)cc3s2)cc1", "displacement": -9.6}
{"smiles": "Cc1ccc(O)c(NC(=O)c2ccc(Cl)cc2)c1", "displacement": 7.7}
{"smiles": "O=C1CSC(=O)N1c1ccc(O)cc1", "displacement": 12.8}
{"smiles": "Cc1ccc(C(=O)Nc2ccc(C(C)C)cc2)cc1C", "displacement": 12.7}
{"smiles": "COc1ccc(CNC(=O)/C=C/c2cccc([N+](=O)[O-])c2)cc1", "displacement": 3.7}
{"smiles": "O=C(Cc1cccc2c(S(=O)O)cccc12)NC(c1ccccc1)c1ccccc1", "displacement": 10}
{"smiles": "CC1CCc2c(sc3nc(-c4ccccc4)oc(=O)c23)C1", "note": "(centres undefined)", "displacement": 5.1}
{"smiles": "Cc1ccc(N=Cc2c(O)n(-c3ccccc3Cl)c(=O)[nH]c2=O)cc1", "displacement": 5}
{"smiles": "CSc1ccc(S(=O)(=O)N(CC(=O)NC2CCCCC2)c2ccc(C)cc2)cc1", "displacement": 7.9}
{"smiles": "Cc1ccc(NC(=S)NC(=O)c2ccco2)cc1", "displacement": -0.3}
{"smiles": "Cc1onc(-c2ccccc2Cl)c1C(=O)N1CCCCCC1", "displacement": 3}
{"smiles": "O=C(c1ccc([N+](=O)[O-])cc1)N1CCN(c2cccc(Cl)c2)CC1", "displacement": -1.3}
{"smiles": "COc1ccc(C2C(=O)c3ccccc3C2=Nc2ccc(Br)cc2)cc1", "note": "(centres undefined)", "displacement": 14.2}
{"smiles": "O=C(O)CSc1ncnc2c1oc1ccccc12", "displacement": 0.4}
{"smiles": "CN(C)CCNC(=O)C12CC3CC(c4ccccc4)(C1)CC(c1ccccc1)(C3)C2", "displacement": 15.6}
{"smiles": "COc1ccccc1N(C(=O)Nc1ccc(Cl)cc1)C(C)C1CC1", "note": "(centres undefined)", "displacement": 8.3}
{"smiles": "CC(c1ccccc1)N1C(=O)C(=Cc2c(NCC3CCCO3)nc3ccccn3c2=O)SC1=S", "note": "(centres undefined)", "displacement": -14.7}
{"smiles": "Oc1ccc(NC(=S)N=Nc2c(O)[nH]c3ccccc23)cc1", "displacement": 8.7}
{"smiles": "COc1ccc(C2C(C(=O)OC(C)C)=C(C)N=c3s/c(=C\\c4ccc(C)o4)c(=O)n32)cc1", "note": "(centres undefined)", "displacement": 12.9}
{"smiles": "Cc1ccsc1C=NN1CCN(Cc2ccccc2Cl)CC1", "displacement": -8}
{"smiles": "CCOc1cccc(C(=O)Nc2ccc(-c3nc4cc(Cl)ccc4o3)cc2)c1", "displacement": 81.3}
{"smiles": "O=C(COc1ccc(Cl)cc1)Nc1ccccc1", "displacement": 13.7}
{"smiles": "Cc1cccc(N(CC(=O)NCCSc2ccccn2)S(=O)(=O)c2ccccc2)c1", "displacement": 3.8}
{"smiles": "COc1ccc2c(c1OC)C(=O)N(c1ccccc1O)C2=O", "displacement": 1.2}
{"smiles": "COc1ccc(/C=C(\\C#N)c2ccc([N+](=O)[O-])cc2)c(OC)c1", "displacement": 110}
{"smiles": "CCOC(=O)c1c(-c2ccccc2)nn(-c2ccccc2)c1C", "displacement": 16.9}
{"smiles": "O=C(Nc1ccc2ccccc2c1)C1CC(=O)N(c2cccc([N+](=O)[O-])c2)C1", "note": "(centres undefined)", "displacement": 9.5}
{"smiles": "c1ccc2c(N3CCOCC3)nc(-c3ccncc3)nc2c1", "displacement": 7.4}
{"smiles": "COc1ccc(CNS(=O)(=O)c2ccc([N+](=O)[O-])cc2)cc1", "displacement": -6.4}
{"smiles": "O=C(Nc1cccc(NC(=O)c2ccc(Cl)cc2Cl)c1)c1ccc(-c2ccc([N+](=O)[O-])cc2)o1", "displacement": 106}
{"smiles": "Cc1ccccc1OCC(=O)NNC(=O)c1ccccc1C", "displacement": -10.7}
{"smiles": "O=C(Nc1ccc(OC(F)(F)F)cc1)c1ccc2c(c1)OCCO2", "displacement": 0.8}
{"smiles": "CCN(CC)CCc1c(C)[nH]c(C(=O)OCc2ccccc2)c1C", "displacement": -0.3}
{"smiles": "Cc1ccc([N+](=O)[O-])cc1NC(=O)c1ccccc1C(=O)O", "displacement": 2.1}
{"smiles": "O=C(O)c1ccc(C(=O)Nc2ccccc2Oc2ccccc2)c(C(=O)O)c1", "displacement": 9.6}
{"smiles": "O=C(/C=C/c1ccc(F)cc1)NC(=S)Nc1cccc([N+](=O)[O-])c1", "displacement": -2.5}
{"smiles": "Cc1ccc(C(=O)Nc2ccc(C(=O)O)cc2)cc1S(=O)(=O)N1CCCCC1", "displacement": 0.1}
{"smiles": "COc1ccc(/C=C/c2ccc3ccccc3n2)cc1", "displacement": -10.7}
{"smiles": "O=c1oc2ccccc2c(O)c1/C=C1\\C=Nc2ccccc21", "displacement": 2.2}
{"smiles": "CCOC(=O)C1C(=O)C=C(c2ccc([N+](=O)[O-])cc2)CC1c1ccccc1", "note": "(centres undefined)", "displacement": 4.1}
{"smiles": "CC(=O)c1ccc(N2C(=O)CC(S/C(N)=N/N=C(\\C)c3cccs3)C2=O)cc1", "note": "(centres undefined)", "displacement": 11.6}
{"smiles": "COCCNC(=O)COc1cccc2ccccc12", "displacement": 0.4}
{"smiles": "Cc1ccc(N2NC(=O)/C(=C/c3cccs3)C2=O)cc1Cl", "displacement": 13.1}
{"smiles": "CCOC(=O)COc1cc(Br)c(/C=c2\\sc3nc4ccccc4n3c2=O)cc1OC", "displacement": 11.1}
{"smiles": "COc1ccc(N=Cc2c(O)n(-c3ccccc3OC)c(=O)[nH]c2=O)cc1", "displacement": 9.4}
{"smiles": "COc1ccc(OC)c(C2NC(=S)NC(C)=C2C(=O)Nc2ccc(Cl)cc2)c1", "note": "(centres undefined)", "displacement": -9.2}
{"smiles": "COc1ccc(NCN2C(=O)S/C(=C/c3ccc(SC)cc3)C2=O)cc1", "displacement": -3.5}
{"smiles": "CCN(CC)C(=O)c1c(-c2ccccc2)oc2ccc(O)cc12", "displacement": 4.7}
{"smiles": "O=[N+]([O-])c1ccc2c(c1)ONC(c1ccc(Cl)cc1)=N2", "displacement": 11.1}
{"smiles": "Cc1ccc(C(=O)O/N=C(\\N)c2cccc([N+](=O)[O-])c2)cc1", "displacement": -17.2}
{"smiles": "Cc1ccc(/C=C2\\C=C(c3ccc(Cl)cc3)OC2=O)cc1[N+](=O)[O-]", "displacement": 13.1}
{"smiles": "COc1ccc(NC(=O)NCCOc2cccc3ccccc23)cc1OC", "displacement": -11.5}
{"smiles": "Cc1cc([N+](=O)[O-])ccc1NS(=O)(=O)c1cc(Cl)ccc1Cl", "displacement": -3}
{"smiles": "NC1=NC(=O)/C(=C/c2cccc(OS(=O)(=O)c3cccc([N+](=O)[O-])c3)c2)S1", "displacement": -8}
{"smiles": "O=C(c1ccccc1)N1CCN(C(=O)c2ccccc2)C1", "displacement": -1.7}
{"smiles": "Oc1[nH]c2ccccc2c1C1=NCCC1", "displacement": 2}
{"smiles": "c1coc(-c2nc3sc(-c4ccco4)nc3s2)c1", "displacement": 44.5}
{"smiles": "Cc1cc(N(CCO)CCO)nc(-n2nc(C)cc2C)n1", "displacement": 0.4}
{"smiles": "CCCc1ncc(C(O)c2ccccc2OC)n1C", "note": "(centres undefined)", "displacement": -3.3}
{"smiles": "CCCCCSc1nnc2nc(C)cc(C)n12", "displacement": -5.3}
{"smiles": "Nc1nc2nc(C(F)(F)C(F)(F)C(F)(F)C(F)(F)F)cc(=O)n2[nH]1", "displacement": -1.7}
{"smiles": "O=C(NCCNC(=O)c1c(O)c2ccccc2oc1=O)c1ccccc1", "displacement": -5.5}
{"smiles": "NS(=O)(=O)c1ccc(CCNC2CC(=O)N(CCc3ccccc3)C2=O)cc1", "note": "(centres undefined)", "displacement": -6.8}
{"smiles": "Nc1nc(OCC(F)(F)C(F)F)cc(-c2ccccc2)n1", "displacement": -6}
{"smiles": "COc1ccc(S(=O)(=O)N2CCN(C(=O)c3ccc([N+](=O)[O-])cc3)CC2)cc1", "displacement": 7.3}
{"smiles": "CNC(=O)c1ccc(CN2CCC(Cc3ccccc3)CC2)cc1", "displacement": -13.5}
{"smiles": "COc1cc(OC)c(C2Nc3cccc4cccc(c34)N2)c(OC)c1", "displacement": 30.3}
{"smiles": "COC(=O)c1ccccc1NC(=O)CN(c1cc(C)cc(C)c1)S(=O)(=O)c1ccccc1", "displacement": 5}
{"smiles": "CCCCSc1nnc(-c2ccc(Br)cc2)o1", "displacement": -11.4}
{"smiles": "COc1ccc(-c2nc3cc(NC(=O)c4ccc5c(c4)OCCO5)ccc3o2)cc1Cl", "displacement": -7}
{"smiles": "COC(=O)c1c(NC(=O)CCc2ccccc2)sc2c1CCC(C)C2", "note": "(centres undefined)", "displacement": -5.7}
{"smiles": "N#CSCCCOc1ccc(Br)cc1", "displacement": -4.7}
{"smiles": "CCc1ccccc1NC(=O)CN(c1ccc(C)cc1)S(=O)(=O)c1ccc(SC)cc1", "displacement": 11.6}
{"smiles": "CCOc1ccc(N(CC(=O)N[C@@H]2C[C@H]3CC[C@@H]2C3)S(=O)(=O)c2ccc(SC)cc2)cc1", "displacement": 5.2}
{"smiles": "CCc1ccc(N2CC(C(=O)Nc3c(CC)cccc3CC)CC2=O)cc1", "note": "(centres undefined)", "displacement": 3}
{"smiles": "Cc1cc(OCC(=O)Nc2ccccc2Cl)cc(C)c1Cl", "displacement": -0.9}
{"smiles": "Cc1ccc(S(=O)(=O)Nc2ccccc2C(N)=O)cc1", "displacement": 2.7}
{"smiles": "NC1=NC(=O)/C(=C/c2ccc(OS(=O)(=O)c3cccc([N+](=O)[O-])c3)cc2)S1", "displacement": 10.1}
{"smiles": "Cc1ccc(/C=N/NC(=O)C(C)Nc2cccc3ccccc23)o1", "note": "(centres undefined)", "displacement": 43.3}
{"smiles": "Cc1onc(-c2ccccc2)c1C(=O)Nc1ccccc1F", "displacement": 5.3}
{"smiles": "COC(=O)CSC1=C(C#N)C(c2ccc(Cl)cc2)C2=C(CC(C)(C)CC2=O)N1", "note": "(centres undefined)", "displacement": -7.7}
{"smiles": "COc1ccc(C(=O)Nc2cc(Cl)ccc2Cl)cc1NC(=O)C(C)Oc1ccccc1", "note": "(centres undefined)", "displacement": 0.6}
{"smiles": "COc1ccc(C2NC(=O)NC(C)=C2C(=O)OCCSC)cc1", "note": "(centres undefined)", "displacement": -4.2}
{"smiles": "COc1cc(C=C2C(=O)NC(=S)NC2=O)cc(Br)c1O", "displacement": 11.8}
{"smiles": "Cc1cccc(C)c1N(CC(=O)NN=C1CCCCCCC1)S(C)(=O)=O", "displacement": -2.4}
{"smiles": "COc1cc(C(=O)NC(NC(=S)Nc2ccc(F)cc2)C(Cl)(Cl)Cl)cc(OC)c1OC", "note": "(centres undefined)", "displacement": -9.6}
{"smiles": "O=C1/C(=C\\c2cccc(Br)c2)SC(=S)N1c1cccc(C(F)(F)F)c1", "displacement": 18.2}
{"smiles": "Cc1cccc(S(=O)(=O)N2CCSC2c2cccc(Cl)c2)c1", "note": "(centres undefined)", "displacement": -0.3}
{"smiles": "COc1ccc(/C=N/n2cnnc2)cc1COc1ccc(NC(C)=O)cc1", "displacement": 21}
{"smiles": "COC(=O)c1ccc(OCc2ccc(COc3ccc(C(=O)OC)cc3)cc2)cc1", "displacement": 3.2}
{"smiles": "Cc1ccc(NC(=O)c2cccc3c(Br)cccc23)c([N+](=O)[O-])c1", "displacement": -1.9}
{"smiles": "CCOC(=O)C1=C(C)N=c2s/c(=C\\c3ccc(OC)cc3)c(=O)n2C1c1ccc(Cl)cc1", "note": "(centres undefined)", "displacement": 18.8}
{"smiles": "O=C1/C(=C/c2ccc(O)c([N+](=O)[O-])c2)SC(=S)N1Cc1ccccc1", "displacement": 12.2}
{"smiles": "O=C(Nc1cccc(Cl)c1Cl)c1cc2ccccc2o1", "displacement": 5.7}
{"smiles": "Cc1ccc(OCCNC(=O)c2ccc(C)cc2)cc1", "displacement": 6.9}
{"smiles": "O=C(NCc1cccs1)NC12CC3CC(CC(C3)C1)C2", "displacement": -4.8}
{"smiles": "COc1ccccc1NC(=O)C1=C(C)NC(=S)NC1c1cccc(OC)c1OC", "note": "(centres undefined)", "displacement": -14}
{"smiles": "Cc1ccc(Cl)cc1NC(=O)c1ccc(CN(c2ccccc2)S(C)(=O)=O)cc1", "displacement": 10.7}
{"smiles": "CC(C)OC(=O)c1cc2n(n1)C(C(F)(F)F)CC(c1cccs1)N2", "note": "(centres undefined)", "displacement": 5.1}
